The source of these data is the antibiotic and cytotoxicity screens of Wong et al. (2023).

The structures appear in SMILES notation. The list shows a part of the results.

In this assay the test system is HSkMC (human skeletal muscle cells). Put plainly: cytotoxicity call (relative viability < 0.9). The note with it: 10 µM.
Turning to `C[C@H]1CN([C@@H](C)CO)C(=O)c2cc(NC(=O)Nc3cccc4ccccc34)ccc2O[C@@H]1CN(C)C(=O)Nc1ccc(C(F)(F)F)cc1`, the cytotoxicity call was “inactive”.
Take `C[C@H](CO)N1C[C@H](C)[C@@H](CN(C)Cc2ccc(Oc3ccccc3)cc2)Oc2ccc(NC(=O)Nc3ccccc3)cc2C1=O`: the cytotoxicity call was “inactive”.
For the compound `CO[C@@H](CN(C)S(=O)(=O)c1cccc(Cl)c1)[C@H](C)CN([C@H](C)CO)S(=O)(=O)c1cccc(Cl)c1`, the cytotoxicity call is “inactive”.
Consider `O=C(NO)c1ccc(C(=O)N/N=C/[C@H](O)[C@@H](O)[C@H](O[C@@H]2O[C@H](CO)[C@H](O)[C@H](O)[C@H]2O)[C@H](O)CO)cc1`, for which the cytotoxicity call is “inactive”.
For `C[C@H](CO)N1C[C@H](C)[C@@H](CN(C)C(=O)CCC(F)(F)F)OCCCC[C@H](C)Oc2ccc(NS(=O)(=O)c3cccs3)cc2C1=O`, the cytotoxicity call is “inactive”.
In the case of `C[C@@H]1CCCCO[C@@H](CN(C)C(=O)NC2CCCCC2)[C@@H](C)CN([C@@H](C)CO)C(=O)c2cc(NS(=O)(=O)c3ccc(Cl)cc3)ccc2O1`, the cytotoxicity call was “inactive”.
In the case of `C[C@H](CO)N1C[C@H](C)[C@@H](CN(C)S(=O)(=O)c2ccc(F)cc2)Oc2ccc(NS(=O)(=O)c3cccs3)cc2C1=O`, the cytotoxicity call was “inactive”.
In the case of `CCNC(=O)C[C@H]1CC[C@H](NC(=O)C2CC2)[C@H](CO)O1` it was “inactive”.
For the compound `CCCNC(=O)N1CC[C@]2(CC1)CN([C@@H](CO)c1[nH]c3cc(ccc3c12)OC)C(=O)CN1CCOCC1`, the cytotoxicity call is “inactive”.
On to `O=C(O)c1ccc2c(ccc3nn(-c4ccc(/C=C/c5ccc(-n6nc7ccc8cc(C(=O)O)ccc8c7n6)cc5S(=O)(=O)O)c(S(=O)(=O)O)c4)nc32)c1`, for which the cytotoxicity call is “inactive”.
In the case of `O=C(C=Cc1ccc(O)cc1)c1ccccc1` it was “inactive”; in that of `COc1ccc(S(=O)(=O)N(C)C[C@@H]2Oc3ccc(NC(=O)c4ccncc4)cc3C(=O)N([C@H](C)CO)C[C@@H]2C)cc1`, “inactive”.
`CN(C)[C@@H](CN)c1cccn1C`: the cytotoxicity call was “inactive”.
For `COc1ccc(S(=O)(=O)N(C)C[C@@H]2OCCCC[C@H](C)Oc3ccc(NC(=O)CCC(F)(F)F)cc3C(=O)N([C@@H](C)CO)C[C@H]2C)cc1`, the cytotoxicity call is “inactive”.
Consider `C[C@@H](O)C#Cc1ccc2c(c1)O[C@H](CN(C)C(=O)CN(C)C)[C@@H](C)CN([C@@H](C)CO)S2(=O)=O`, for which the cytotoxicity call is “inactive”.
The entry for `COCCOC(=O)N1C(=O)[C@@]2(c3cc(C#CC4(O)CCCCCC4)ccc31)[C@H](c1ccccc1OCCO)N1[C@H](c3ccccc3)[C@H](c3ccccc3)OC(=O)[C@H]1[C@@H]2C(=O)N1CCc2cc(OC)c(OC)cc2C1` is “inactive”; for `C[C@@H]1CN([C@H](C)CO)C(=O)Cc2cc(NC(=O)CCN3CCOCC3)ccc2O[C@H]1CN(C)C(=O)NC1CCCCC1` it is “inactive”.
For `COc1ccc(S(=O)(=O)Nc2ccc3c(c2)C(=O)N([C@H](C)CO)C[C@H](C)[C@@H](CN(C)C(=O)Nc2ccccc2)OCCCC[C@H](C)O3)cc1`, the cytotoxicity call was “inactive”.
For the compound `C[C@H](CO)N1C[C@H](C)[C@@H](CN(C)S(=O)(=O)c2cn(C)cn2)Oc2ccc(NC(=O)Cn3cnnn3)cc2C1=O`, the cytotoxicity call is “inactive”.
For the compound `Cc1noc(C)c1S(=O)(=O)N(C)C[C@@H]1OCCCC[C@@H](C)Oc2ccc(NS(=O)(=O)c3cn(C)cn3)cc2C(=O)N([C@@H](C)CO)C[C@H]1C`, the cytotoxicity call is “inactive”.
In the case of `C[C@@H]1CN([C@H](C)CO)C(=O)Cc2cc(NC(=O)Cn3cnnn3)ccc2O[C@H]1CN(C)S(=O)(=O)c1ccccc1`, the cytotoxicity call is “inactive”.
The entry for `C[C@@H]1CN([C@H](C)CO)C(=O)c2cc(NC(=O)Nc3ccc(C(F)(F)F)cc3)ccc2O[C@H]1CN(C)Cc1ccc(C(F)(F)F)cc1` is “active”.
`CC#CCCC(=O)O`: the cytotoxicity call was “inactive”.
On to `COc1ccc(S(=O)(=O)N2C[C@H](O)COC[C@H]3O[C@@H](CC(=O)N[C@@H]4CCN(Cc5ccccc5)C4)CC[C@@H]32)cc1`, for which the cytotoxicity call was “inactive”.
With `C[C@@H]1CN([C@H](C)CO)C(=O)c2cc(NC(=O)Cc3ccccc3)ccc2O[C@@H](C)CCCCO[C@@H]1CN(C)S(=O)(=O)c1ccc(F)cc1`, the cytotoxicity call is “inactive”.
Consider `CCCNC(=O)COc1cccc([C@@H](CCc2ccc(OC)c(OC)c2)OC(=O)[C@@H]2CCCCN2C(=O)C(=O)C(C)(C)CC)c1`, for which the cytotoxicity call is “inactive”.
Regarding `CC(C)(CO)[C@@H](O)C(=O)NCCCO`, the cytotoxicity call is “inactive”.
The entry for `C[C@H](CO)N1C[C@H](C)[C@H](CN(C)S(=O)(=O)c2ccccc2)Oc2ccc(NC(=O)Nc3cccc4ccccc34)cc2C1=O` is “inactive”; for `CS(=O)(=O)N1C[C@H](NC(=O)C2CC2)[C@H]2OCCC[C@H]21` it is “inactive”.
